Results from publication PMC4336329 (PLoS ONE, 2015).
The campaign covered roughly 310,000 compounds. About 2,200 (0.71%) showed an effect of 50% or more. The effect is printed as a negative number. This is one part of the list.

biological target: human ether-à-go-go-related gene (hERG) potassium channel (human, UniProt Q12809); assay: primary screen, population patch clamp on CHO cells stably expressing hERG
Sequence (Q12809 whole entry, looked up): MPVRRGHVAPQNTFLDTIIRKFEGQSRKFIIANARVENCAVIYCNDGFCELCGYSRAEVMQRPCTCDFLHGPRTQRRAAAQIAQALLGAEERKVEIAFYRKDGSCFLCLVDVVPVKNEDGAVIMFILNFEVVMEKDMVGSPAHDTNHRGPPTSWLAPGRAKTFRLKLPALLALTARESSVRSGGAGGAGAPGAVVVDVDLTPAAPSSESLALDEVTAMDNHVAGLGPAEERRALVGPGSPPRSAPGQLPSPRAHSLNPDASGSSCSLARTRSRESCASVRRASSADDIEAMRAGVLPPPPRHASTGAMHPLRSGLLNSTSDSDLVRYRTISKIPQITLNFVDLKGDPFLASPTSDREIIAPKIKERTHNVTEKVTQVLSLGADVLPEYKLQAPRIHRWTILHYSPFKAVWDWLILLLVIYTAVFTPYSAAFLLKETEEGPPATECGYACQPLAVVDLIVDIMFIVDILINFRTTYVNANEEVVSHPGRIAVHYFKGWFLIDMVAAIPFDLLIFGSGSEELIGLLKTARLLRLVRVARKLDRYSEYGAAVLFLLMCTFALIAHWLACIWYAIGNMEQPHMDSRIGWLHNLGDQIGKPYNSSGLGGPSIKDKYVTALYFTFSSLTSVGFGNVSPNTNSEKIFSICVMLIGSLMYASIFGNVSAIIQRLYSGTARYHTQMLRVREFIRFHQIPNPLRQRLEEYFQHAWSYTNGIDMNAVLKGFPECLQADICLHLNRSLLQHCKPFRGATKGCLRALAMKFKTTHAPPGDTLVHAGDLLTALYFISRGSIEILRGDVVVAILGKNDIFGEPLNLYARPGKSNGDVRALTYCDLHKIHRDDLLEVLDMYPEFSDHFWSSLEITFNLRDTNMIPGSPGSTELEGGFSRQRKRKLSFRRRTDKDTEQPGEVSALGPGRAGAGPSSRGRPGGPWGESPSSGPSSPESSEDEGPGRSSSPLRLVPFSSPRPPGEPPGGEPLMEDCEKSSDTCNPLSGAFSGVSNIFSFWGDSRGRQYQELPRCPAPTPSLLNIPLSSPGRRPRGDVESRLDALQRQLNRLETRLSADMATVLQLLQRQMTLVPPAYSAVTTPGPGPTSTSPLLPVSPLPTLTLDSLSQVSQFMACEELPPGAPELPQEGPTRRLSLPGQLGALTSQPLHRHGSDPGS

Q: For `COc1ccc(S(=O)(=O)N2CCN(S(=O)(=O)c3ccc(C(F)(F)F)cc3)CC2)cc1C`, which “hERG current change (%, negative = inhibition) at 1uM” value is on record?
A: The value was 4.99%.

Q: Which “hERG current change (%, negative = inhibition) at 1uM” value does the source give for `COc1ccc(Cl)cc1NC(=O)C/C(C)=N/NC(=O)Cc1ccccc1` here?
A: The value was 7.06%.

Q: `COc1cccc(/C(C)=N/Nc2ncc(Cl)cc2Cl)c1` was tested. Which “hERG current change (%, negative = inhibition) at 1uM” value did it give?
A: Its value is 3.21%.

Q: For `CCc1nnc(NC(=O)CN2CC(C)OC(C)C2)s1` (stereo not drawn), which “hERG current change (%, negative = inhibition) at 1uM” value is on record?
A: The value was 13.3%.

Q: Which “hERG current change (%, negative = inhibition) at 1uM” value does the source give for `O=C(Cc1ccccc1)Oc1ccccc1N1C(=O)CCC1=O` here?
A: The value was 8.09%.

Q: For `CCOc1ccc(/C=C(/NC(=O)c2ccc(Cl)cc2)C(=O)O)cc1OCC`, which “hERG current change (%, negative = inhibition) at 1uM” value is on record?
A: The value was -4.42%.

Q: Which “hERG current change (%, negative = inhibition) at 1uM” value does the source give for `Cc1ccccc1NC(=O)NCCCN1CCN(C2CCCCC2)CC1` here?
A: Its value is 1.86%.

Q: How did the “hERG current change (%, negative = inhibition) at 1uM” value turn out when `CC(C)C(OC(=O)/C=C/c1ccc2c(c1)OCO2)C(=O)NC(N)=O` (stereo not drawn) was run?
A: Its value is 5.82%.

Q: `COc1ccc2c(c1)C(C)(CCN)C(=O)N2C` (stereo not drawn) was tested. Which “hERG current change (%, negative = inhibition) at 1uM” value did it give?
A: Its value is 5.06%.

Q: For `O=S1(=O)NC[C@]23C[C@H](c4ccc(F)cc4)[C@@H](C[C@@H]21)O3`, which “hERG current change (%, negative = inhibition) at 1uM” value is on record?
A: Its value is 8.17%.

Q: For `CC(C)OC(=O)c1cc(C(=O)c2cc(Br)ccc2O)coc1=N`, which “hERG current change (%, negative = inhibition) at 1uM” value is on record?
A: Its value is 10.1%.

Q: For `O=C(O)/C=C/c1cccc(NC(=O)c2ccccc2)c1`, which “hERG current change (%, negative = inhibition) at 1uM” value is on record?
A: Its value is 6.3%.

Q: `CCOC(=O)N1CCN(C(=O)C(C)NC(=O)c2ccco2)CC1` (stereo not drawn) was tested. Which “hERG current change (%, negative = inhibition) at 1uM” value did it give?
A: Its value is 12.1%.

Q: With `CCN1CCN(C(=S)c2ccc(Br)cc2)CC1` as the compound, how does the “hERG current change (%, negative = inhibition) at 1uM” value read?
A: Its value is -23.3%.

Q: With `O=C(/C=C/c1ccc2c(c1)OCO2)Nc1nc(-c2ccc(F)cc2F)cs1` as the compound, how does the “hERG current change (%, negative = inhibition) at 1uM” value read?
A: The value was 10.5%.

Q: For `CC(CC(=O)NCc1ccc(Cl)cc1)c1ccccc1` (stereo not drawn), which “hERG current change (%, negative = inhibition) at 1uM” value is on record?
A: Its value is 10.4%.

Q: How did the “hERG current change (%, negative = inhibition) at 1uM” value turn out when `O=C(COC(=O)Cn1cnc2ccccc21)NCc1ccc(F)cc1` was run?
A: The value was 17.3%.

Q: With `CC(=O)N1CCCc2cc(S(=O)(=O)N3CCc4ccccc4C3)ccc21` as the compound, how does the “hERG current change (%, negative = inhibition) at 1uM” value read?
A: The value was 2.29%.

Q: Which “hERG current change (%, negative = inhibition) at 1uM” value does the source give for `CN1CCN(CCC(=O)Nc2ccc(OCc3ccccc3)cc2)CC1` here?
A: The value was -20.8%.

Q: With `Cc1cccc(C)c1NC(=O)Nc1ccc(S(N)(=O)=O)cc1` as the compound, how does the “hERG current change (%, negative = inhibition) at 1uM” value read?
A: Its value is 18.5%.

Q: Which “hERG current change (%, negative = inhibition) at 1uM” value does the source give for `Cc1ccc2nc(SCC(=O)Nc3cccc(F)c3)nc(=O)n2c1` here?
A: The value was -9.78%.

Q: How did the “hERG current change (%, negative = inhibition) at 1uM” value turn out when `Cc1ccccc1NCC(=O)N/N=C/C(Br)=C/c1ccccc1` was run?
A: The value was 8.19%.

Q: Which “hERG current change (%, negative = inhibition) at 1uM” value does the source give for `CCC(C)NS(=O)(=O)c1ccc(S(=O)(=O)N(CC(=O)Nc2ccccc2)Cc2ccco2)cc1` (stereo not drawn) here?
A: Its value is 9.63%.

Q: How did the “hERG current change (%, negative = inhibition) at 1uM” value turn out when `CN1C(=O)c2ccccc2NC(=O)C1Cc1ccccc1` (stereo not drawn) was run?
A: Its value is 35.9%.

Q: For `CCOc1c(Cl)cc(CNCc2ccncc2)cc1OC.Cl`, which “hERG current change (%, negative = inhibition) at 1uM” value is on record?
A: Its value is 6.19%.

Q: `CC1Cc2ccccc2N1C(=O)COC(=O)c1n[nH]c(=O)c2ccccc12` (stereo not drawn) was tested. Which “hERG current change (%, negative = inhibition) at 1uM” value did it give?
A: The value was 3.48%.

Q: With `CC(C)C(=O)Nc1cccc(NC(=O)c2cc3ccccc3o2)c1` as the compound, how does the “hERG current change (%, negative = inhibition) at 1uM” value read?
A: Its value is -2.08%.

Q: For `COc1ccc(Cl)cc1NC(=O)c1cnc2sccn2c1=O`, which “hERG current change (%, negative = inhibition) at 1uM” value is on record?
A: The value was 14.5%.

Q: How did the “hERG current change (%, negative = inhibition) at 1uM” value turn out when `O=C(NC(=S)N1CCN(C/C=C/c2ccccc2)CC1)c1cccnc1` was run?
A: Its value is 8.16%.

Q: For `COc1ccc(CNC(=O)/C=C/c2ccc(OCCCF)cc2)cc1`, which “hERG current change (%, negative = inhibition) at 1uM” value is on record?
A: Its value is 2.56%.

Q: `O=S1(=O)CCOC[C@H](CC2CCCCC2)N1Cc1ccccc1F` was tested. Which “hERG current change (%, negative = inhibition) at 1uM” value did it give?
A: Its value is 9.08%.

Q: For `COc1cc2c(cc1OC)CN(C(=O)c1sc(-c3cnccn3)nc1C)CC2`, which “hERG current change (%, negative = inhibition) at 1uM” value is on record?
A: The value was 12.1%.

Q: How did the “hERG current change (%, negative = inhibition) at 1uM” value turn out when `CCCCCn1c(=O)c(C(=O)Nc2nc(CC(=O)OCC)cs2)c(O)c2ccccc21` was run?
A: Its value is 10.7%.

Q: With `COc1nc(-c2ccccc2)nc(-c2ccccc2)c1C` as the compound, how does the “hERG current change (%, negative = inhibition) at 1uM” value read?
A: Its value is 10.3%.

Q: For `Cc1cccc(NC(=O)CCC(=O)Nc2nnc(C(F)(F)F)s2)c1`, which “hERG current change (%, negative = inhibition) at 1uM” value is on record?
A: The value was 10.2%.

Q: Which “hERG current change (%, negative = inhibition) at 1uM” value does the source give for `COC(=O)CCN1CCN(S(=O)(=O)c2cccc(Br)c2)CC1` here?
A: Its value is 6.75%.

Q: Which “hERG current change (%, negative = inhibition) at 1uM” value does the source give for `CCN(CC)CCNC(=O)c1cn(C)c2ccc(S(=O)(=O)N(C)C3CCCCC3)cc2c1=O` here?
A: Its value is -6.39%.

Q: Which “hERG current change (%, negative = inhibition) at 1uM” value does the source give for `O=C(COc1ccccc1)N1CCN(S(=O)(=O)c2ccc(Cl)cc2)CC1` here?
A: The value was -2.21%.

Q: For `CCCCCOP(=O)(OCCCCC)C1(NS(=O)(=O)c2ccccc2)C=CC(=O)c2ccccc21` (stereo not drawn), which “hERG current change (%, negative = inhibition) at 1uM” value is on record?
A: Its value is 14.2%.

Q: For `CCN1CCCC1CNCC(O)COc1ccc(C(C)(C)C)cc1C.O=C(O)C(=O)O` (stereo not drawn), which “hERG current change (%, negative = inhibition) at 1uM” value is on record?
A: Its value is -17.5%.

Q: How did the “hERG current change (%, negative = inhibition) at 1uM” value turn out when `Cc1cc(Oc2ccc(Cl)cc2)nc(SCC(=O)c2ccccc2)n1` was run?
A: The value was 10.1%.

Q: For `CC1=NN(C(=O)Cc2ccccc2)C(O)(c2ccccc2)C1` (stereo not drawn), which “hERG current change (%, negative = inhibition) at 1uM” value is on record?
A: Its value is 14.6%.

Q: Which “hERG current change (%, negative = inhibition) at 1uM” value does the source give for `COc1ccc(C(=O)C[n+]2cn(C(F)F)c3ccccc32)c(F)c1.[Br-]` here?
A: The value was -0.738%.

Q: For `Cc1ccc(S(=O)(=O)NCCCCCC(=O)Nc2ccccn2)cc1`, which “hERG current change (%, negative = inhibition) at 1uM” value is on record?
A: Its value is -3.7%.

Q: With `COc1ccc(CNC(=O)C(=O)NCc2cccnc2)cc1` as the compound, how does the “hERG current change (%, negative = inhibition) at 1uM” value read?
A: The value was 1.65%.

Q: `O=C(NCc1cccc(F)c1)C1CCC(=O)N(CC2CCCCC2)C1` (stereo not drawn) was tested. Which “hERG current change (%, negative = inhibition) at 1uM” value did it give?
A: The value was 9.16%.

Q: With `Cc1ccc(/C=N/NC(=O)c2sccc2OCc2ccc(F)cc2)cc1` as the compound, how does the “hERG current change (%, negative = inhibition) at 1uM” value read?
A: The value was 17.7%.

Q: How did the “hERG current change (%, negative = inhibition) at 1uM” value turn out when `COc1cccc(-n2nnc3c(=O)n(Cc4ccccc4Cl)cnc32)c1` was run?
A: The value was 5.51%.

Q: How did the “hERG current change (%, negative = inhibition) at 1uM” value turn out when `CC(C)(C)c1ccc(C(=O)O/N=C(\N)c2ccccn2)cc1` was run?
A: Its value is 13.9%.

Q: `O=C(NCc1cccc(Cl)c1)c1ccco1` was tested. Which “hERG current change (%, negative = inhibition) at 1uM” value did it give?
A: The value was -8.55%.

Q: With `O=C(Nc1nc(-c2ccccc2)cs1)C1c2ccccc2Oc2ccccc21` as the compound, how does the “hERG current change (%, negative = inhibition) at 1uM” value read?
A: The value was 4.9%.

Q: With `Cc1ccc(-n2c(N)cc(=O)nc2SCC(=O)NC2CCCCC2)cc1C` as the compound, how does the “hERG current change (%, negative = inhibition) at 1uM” value read?
A: Its value is 8.34%.

Q: With `Cc1sc(-c2ccccn2)nc1OC(=O)c1ccc(F)cc1F` as the compound, how does the “hERG current change (%, negative = inhibition) at 1uM” value read?
A: The value was 16.2%.

Q: With `Cc1cc(C2=NNC(=Nc3ccc(S(=O)(=O)N4CCOCC4)cc3)SC2)c(C)n1C` as the compound, how does the “hERG current change (%, negative = inhibition) at 1uM” value read?
A: Its value is 1.56%.

Q: With `CCCc1cc(C(=O)OC)c(NC(=O)OCC)s1` as the compound, how does the “hERG current change (%, negative = inhibition) at 1uM” value read?
A: Its value is -0.13%.

Q: `C=CCNc1nc(C(=O)OCC(=O)N(Cc2ccccc2)C(C)C)cs1` was tested. Which “hERG current change (%, negative = inhibition) at 1uM” value did it give?
A: The value was 6.35%.

Q: How did the “hERG current change (%, negative = inhibition) at 1uM” value turn out when `COC/C=C/C1=CC2=CC(=O)C(C)(OC(=O)c3cnc4ccccc4n3)C(=O)C2=CN1CC1CC1` (stereo not drawn) was run?
A: Its value is 8.99%.
